In PubChem BioAssay AID504832 (National Center for Advancing Translational Sciences (NCATS), 2011):
In all, about 310,000 compounds went through this assay and about 18,000 (5.8%) were called active. The inconclusive results got no clear call from the source; some entries with a clear call stand among them for comparison. Calls come from the whole dose curve; as a rule, active = well fitted inhibition curve with a large enough effect; inconclusive = small, poorly fitted or top-dose-only effect, or another doubt; inactive = no such curve, though single readings can be large or run the other way. No potency is given beside an inconclusive call; the fits are too rough.

Experiment: Primary qHTS for delayed death inhibitors of the malarial parasite plastid, 48 hour incubation
Details: P. falciparum luciferase growth in erythrocytes; series mostly up to 28.7 µM
Outline: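 Luminescence readout; reporter = integrated firefly luciferase in P. falciparum. RBC culture at 2% hematocrit, 0.1% parasitemia final, 37 C/5% CO2; decreased signal taken as growth inhibition.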
% is set by controls: 0 for no effect and ±100 for the full control effect; potency is the fitted concentration of half-maximal effect; tags give direction and shape of the fitted curve.

Row | Structure (SMILES) | Potency | activity change, negative = inhibition
1 | COCCn1c(N)c(C(=S)NC(=O)c2cccs2)c(=O)[nH]c1=O | inactive | –
2 | S=c1[nH]c2ccccc2o1 | inactive | –
3 | CCOc1ccccc1NC(=O)C1=C(C)NC(=O)NC1c1cccc(OC)c1OC (stereo not drawn) | inconclusive [inhibitor, single point] | –
4 | CN1C(=O)C(C)(C)c2cc(S(=O)(=O)NCC3CCC(C(=O)NC4CCCCC4)CC3)ccc21 (stereo not drawn) | inconclusive [inhibitor, partial curve] | –
5 | CCS(=O)(=O)c1nc(S(=O)(=O)c2ccc(C)cc2)c(N2CCCC(C)C2)s1 (stereo not drawn) | inconclusive [inhibitor, partial curve] | –
6 | COCCNS(=O)(=O)c1ccc(-c2ccc(C)cc2)cc1 | inactive | –
7 | CCOc1ccc(CCNC(=O)CCNC(=O)c2ccccc2Cl)cc1OCC | active: 11.7 µM | –
8 | CCn1nc(C(=O)Nc2nc3ccc(C)cc3s2)c2ccccc2c1=O | inactive | –
9 | Oc1cccc(C2c3[nH]c4ccccc4c3CCN2Cc2cnn(-c3ccccc3)c2)c1 (stereo not drawn) | inconclusive [inhibitor, single point] | –
10 | Cc1ccc(C(=O)CCC(=O)N2CCN(c3ccccc3O)CC2)cc1 | inconclusive [inhibitor, single point] | –
11 | COc1ccc(C2=NN(C(=O)CSc3ncccn3)C(c3ccc(OC)cc3)C2)cc1 (stereo not drawn) | active: 10.4 µM | –
12 | CCc1ccccc1N(CC(=O)NC1CCCCC1)C(=O)CCC(=O)Nc1ccccn1 | inconclusive [inhibitor, partial curve, poor fit] | –
13 | O=C(O)CNC(=O)c1ccc(OC(F)F)cc1 | inconclusive [inhibitor, full curve, poor fit] | –
14 | COCCCN(C(=O)c1cc2c(s1)CCCCC2)c1c(N)n(Cc2ccccc2)c(=O)[nH]c1=O | inconclusive [inhibitor, single point] | –
15 | Cc1ccc(NC(=O)c2nc(S(=O)(=O)Cc3ccccc3)ncc2Cl)cc1 | inactive | –
16 | CCN(CC)CCOCCOc1ccc(Cl)c2ccccc12 | inconclusive [inhibitor, single point] | –
17 | FC(F)(F)c1ccc2c(c1)C1C=CCC1C(c1ccncc1)N2 (stereo not drawn) | inconclusive [inhibitor, single point] | –
18 | O=S1OC(c2ccccc2)c2cc(Cl)ccc21 (stereo not drawn) | inactive | –
19 | Cc1cccc(NC(=O)CSc2nc(N)c(NC(=O)c3ccccc3F)c(=O)[nH]2)c1 | inactive | –
20 | Cc1cc(C)c2cc(C(c3nnnn3C3CCCC3)N3CCOCC3)c(=O)[nH]c2c1 (stereo not drawn) | inconclusive [inhibitor, single point] | –
21 | O=C(CCN1C(=O)/C(=C/c2ccccc2F)SC1=S)NCCCN1CCOCC1 | inconclusive [inhibitor, partial curve, poor fit] | –
22 | Cc1cc(/C=C2/NC(=O)N(Cc3ccccc3F)C2=O)c(C)n1C(C)C | inconclusive [inhibitor, single point] | –
23 | COc1ccc(O)c(CNn2c(-c3ccc(Br)cc3)nc3ccccc3c2=O)c1 | active: 9.28 µM | –

Row | Structure (SMILES) | Potency | activity change, negative = inhibition
24 | CC(C)Cc1nc(NCCN2CCOCC2)c(C#N)c2c1COC(C)(C)C2 | active: 11.7 µM | –
25 | Cc1c(C(=O)OCC(=O)N2c3ccccc3CC2C)oc2ccccc12 (stereo not drawn) | inactive | –
26 | O=c1c2ccccc2nc(SCc2nnc(-c3ccccc3Br)o2)n1Cc1ccco1 | inconclusive [inhibitor, single point] | –
27 | COc1ccc(NC(=O)c2cc(Br)ccc2Cl)c([N+](=O)[O-])c1 | – | inactive: -7.39% [at 5.75 µM]
28 | CC1C(=NO)C(C)C(c2ccc(N(C)C)cc2)NC1c1ccc(N(C)C)cc1 (stereo not drawn) | inconclusive [inhibitor, single point] | –
29 | CCCNC(=O)c1ccc(N2CCC3(CC2)CC(c2cccc(Br)c2)=NO3)c([N+](=O)[O-])c1 | inconclusive [inhibitor, partial curve, poor fit] | –
30 | COc1ccc(-c2nn(-c3ccccc3)cc2/C=N/NC(N)=S)cc1OC | active: 11.7 µM | –
31 | CC(C)CN(C(=O)COC(=O)c1ccc2c(c1)OCCO2)c1c(N)n(Cc2ccccc2)c(=O)[nH]c1=O | inconclusive [inhibitor, single point] | –
32 | Fc1cccc(/C=N/Nc2ccccn2)c1 | inactive | –
33 | C=CCN1CCN(C(CC(C)C)c2nnnn2CCOC)CC1 (stereo not drawn) | inactive | –
34 | Cc1ccc2c(c1)c1ncnc(N3CCc4ccccc4C3)c1n2C | inconclusive [inhibitor, single point] | –
35 | Cc1ccccc1C(=O)NC(C(=O)Nc1nc2c(s1)CCCC2)C(C)C (stereo not drawn) | inconclusive [inhibitor, single point] | –
36 | CC(=O)Nc1ccc(SCc2csc(C)n2)cc1 | inconclusive [inhibitor, single point] | –
37 | COc1ccccc1CNC(=O)COC(=O)CSc1ccc(C)c(C)c1 | inconclusive [inhibitor, single point] | –
38 | COc1cc(OC)cc(-c2c(C#Cc3ccsc3)c3cc(-c4ccc(OC)nc4)ccc3n2C)c1 | inconclusive [inhibitor, partial curve] | –
39 | CC(=O)OCC1=C(C(=O)O)N2C(=O)C(NC(=O)CC(C)c3ccccc3)C2SC1 (stereo not drawn) | inactive | –
40 | Clc1ccccc1C1Nc2cccc3cccc(c23)N1 | inconclusive [inhibitor, single point] | –
41 | C=C1N[C@]2(C(=O)COC(C)=O)[C@@H](C[C@H]3[C@@H]4CCC5=CC(=O)C=C[C@]5(C)[C@H]4[C@@H](O)C[C@@]32C)O1 | inconclusive [inhibitor, partial curve] | –
42 | O=C(Cc1cccc(NC(=O)C2CCN(C(=O)C3CCCC3)CC2)c1)Nc1cccc(C(=O)N2CCCC2)c1 | active: 14.7 µM | –
43 | Cn1c(SCC(=O)N2CCN(Cc3ccccc3)CC2)nnc1-c1ccncc1 | inactive | –
44 | O=S(=O)(c1ccccc1)c1nnn2c1nc(NC1CCN(Cc3ccccc3)CC1)c1ccccc12 | inconclusive [inhibitor, full curve, poor fit] | –
45 | Cc1nc(N2CCOCC2)nc(N2CCC(C)CC2)c1[N+](=O)[O-] | inconclusive [inhibitor, single point] | –
46 | CCOC(=O)CCc1c(C)c2ccc(OCc3nn[nH]n3)cc2oc1=O | inactive | –

Row | Structure (SMILES) | Potency | activity change, negative = inhibition
47 | O=C(NNC(=O)c1ccccc1O)c1ccc(-c2ccc([N+](=O)[O-])cc2)o1 | inactive | –
48 | CCCc1cnc(N2CCN(C(=O)c3ccc(F)cc3)CC2)nc1 | inconclusive [inhibitor, single point] | –
49 | Cc1nnc(SCC(=O)NC2CCC(C)CC2)s1 (stereo not drawn) | inconclusive [inhibitor, single point] | –
50 | Cc1nccn1CCCNCc1c(C(=O)N2CCCCCCC2)nc2ccc(Cl)cn12 | inconclusive [inhibitor, partial curve, poor fit] | –
51 | O=C(Nc1cc(S(=O)(=O)N2CCOCC2)ccc1N1CCCC1)c1ccc2c(c1)S(=O)(=O)c1ccccc1C2=O | inconclusive [inhibitor, partial curve] | –
52 | O=C(c1ccco1)N1CCN(C(=O)c2cc(-c3ccccn3)nc3ccc(Cl)cc23)CC1 | inconclusive [inhibitor, single point] | –
53 | O=C(CCn1c(=S)[nH]c2ccccc2c1=O)NCCSCc1ccccc1 | inconclusive [inhibitor, partial curve, poor fit] | –
54 | CC(C)Oc1cccc(-c2cc(C(=O)N3CCN(S(C)(=O)=O)CC3)c3ccccc3n2)c1 | inconclusive [inhibitor, single point] | –
55 | COC(=O)C(C)n1cnc2c(nnn2-c2cccc(OC)c2)c1=O (stereo not drawn) | inactive | –
56 | CSc1ncnc2c1cnn2-c1ccc(C)cc1C | inactive | –
57 | N=c1c2c(-c3ccccc3)c(-c3ccccc3)oc2ncn1CCN1CCOCC1 | active: 7.38 µM | –
58 | Cc1nnc2ccc(-c3ccc(NS(=O)(=O)c4ccccc4[N+](=O)[O-])cc3)nn12 | inconclusive [inhibitor, partial curve] | –
59 | CCOc1ccc(NC(=S)NC(=O)/C=C/c2ccc(OC)c(OC)c2)c([N+](=O)[O-])c1 | inconclusive [inhibitor, partial curve, poor fit] | –
60 | Cc1cccc(C)c1NC(=S)Nc1ccc(F)cc1 | inactive | –
61 | CCOC(=O)c1c(NC(=O)c2ccco2)n(C2CCCCC2)c2nc3ccccc3nc12 | inconclusive [inhibitor, single point] | –
62 | CN(CC(=O)Nc1ccc(F)cc1)C(=O)c1ccc(-c2ccc(Cl)cc2)o1 | inconclusive [inhibitor, full curve] | –
63 | CC(=O)c1c(C)[nH]c(C(=O)CSc2nnc(-c3ccccc3)n2Cc2ccc3c(c2)OCO3)c1C | inconclusive [inhibitor, partial curve] | –
64 | CCC(C)[C@H](NC(=O)NCc1ccc(S(N)(=O)=O)cc1)C(=O)O (stereo partly drawn) | inactive | –
65 | COC(=O)C1=C(C)N(c2ccc(C)cc2)/C(=C/c2ccc(O)cc2)C1=O | inconclusive [inhibitor, single point] | –
66 | COc1ccc(N(C)S(=O)(=O)c2cccc(C(=O)NCC(c3cccs3)N(C)C)c2)cc1 (stereo not drawn) | inconclusive [inhibitor, partial curve] | –
67 | O=C(N/N=C1/CN2CCC1CC2)c1cc2ccccc2cc1O | active: 13.1 µM | –
68 | CC(=O)OCCN(CCCn1c(-c2ccncc2)nc2ccccc21)c1nc(CN2CCCCC2)cs1 | inconclusive [inhibitor, partial curve, poor fit] | –
